Test results reported in PMC3817341 (British Journal of Cancer, 2013).

B1: myc-p21^T145E (natural protein)
chain: not shown
B2: myc-p21^T145E/S146D (natural protein)
chain: not shown

Target: proliferating cell nuclear antigen (human (endogenous in A2780), UniProt P12004)
Experiment: cell-based or functional assay

Sequence of UniProt P12004 (P12004 whole entry): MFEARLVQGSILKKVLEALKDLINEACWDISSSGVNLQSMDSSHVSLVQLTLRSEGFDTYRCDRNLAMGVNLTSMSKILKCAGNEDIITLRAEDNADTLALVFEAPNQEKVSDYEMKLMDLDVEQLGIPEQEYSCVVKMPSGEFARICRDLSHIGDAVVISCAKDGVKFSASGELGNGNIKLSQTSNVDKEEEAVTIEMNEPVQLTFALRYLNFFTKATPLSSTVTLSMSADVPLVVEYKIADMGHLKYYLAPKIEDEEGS

Binder	half-life of myc-p21 in Cdk2 immunoprecipitates after cycloheximide [min]	half-life of myc-p21 in crude lysates of A2780 cells after cycloheximide [min]
B1	30	~30
B2	60	~30
